Data reported in the BET-seq Pho4 binding data (Le et al. 2018).
This is one part of the list. These are noisy estimates, calculated here from bound and input reads.

Molecular target: T1, Pho4 (S. cerevisiae) (UniProt P07270)
T1 sequence: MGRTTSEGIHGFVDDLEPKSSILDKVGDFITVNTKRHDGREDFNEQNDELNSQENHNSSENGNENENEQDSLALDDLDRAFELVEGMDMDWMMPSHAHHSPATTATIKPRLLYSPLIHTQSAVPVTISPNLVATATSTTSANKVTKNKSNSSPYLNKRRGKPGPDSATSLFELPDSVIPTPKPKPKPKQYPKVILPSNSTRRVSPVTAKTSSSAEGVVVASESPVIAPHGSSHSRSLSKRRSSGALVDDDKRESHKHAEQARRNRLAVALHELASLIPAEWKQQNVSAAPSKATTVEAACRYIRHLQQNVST
Assay: relative binding free energy (BET-seq); higher = weaker binding
Conditions: reference: library average

Sequence	relative binding free energy [kcal/mol]
CGCAGCACGTGGGAGG	-0.31
AAGTTCACGTGCGAGG	0.2
GAATACACGTGGGTGA	0.02
TAGCGCACGTGTATAT	-0.02
TCAATCACGTGTGGGA	0.26
GTTCGCACGTGGAGGA	-0.05
CTCTGCACGTGAGGGT	0.2
GGTATCACGTGGGGGT	0.07
GTATACACGTGGATAA	0.17
TAGGTCACGTGAACTT	0.26
TGCGTCACGTGTGGAC	0.24
ATGTGCACGTGCTTGC	0.03
TTACTCACGTGTGTCT	0.17
GGGTGCACGTGCAGTT	0.02
AGATGCACGTGGTACG	-0.17
GTGAACACGTGAATGG	0.41
AGAGTCACGTGGAAAT	0.38
TAAGTCACGTGTGTAC	0.14
GGTCGCACGTGTTGGT	0.09
AGGAGCACGTGGGATG	-0.14
TCGTTCACGTGCGGGT	0.24
TTGGCCACGTGGCGGT	-0.27
CAAGTCACGTGGGCGG	-0.06
GGCGGCACGTGGTATT	0
TAGGGCACGTGTTGCG	-0.15

Sequence	relative binding free energy [kcal/mol]
TGTAGCACGTGTGAGA	0
GGGAACACGTGCGGGA	0.06
TTGGGCACGTGGACGA	0.02
ATACTCACGTGTGGTT	0.22
GGGGGCACGTGGCCTA	-0.26
TTCGACACGTGTGGTT	0.11
GTCAGCACGTGAGGGC	0.25
CGTGACACGTGTTATT	0.19
CTGGTCACGTGGTATT	0.12
TTTGACACGTGCGGCA	-0.01
GTGAGCACGTGTGGCA	-0.16
TGATTCACGTGGAGTG	0.2
CGGCGCACGTGGTTAG	-0.19
TGGGACACGTGGGCTA	-0.12
GGATGCACGTGTGGAC	0.08
TAGGGCACGTGGTAGT	-0.16
AGTGACACGTGATGCG	0.06
TCTAACACGTGTGGTT	-0.02
CCGTGCACGTGAGAGG	0.39
AGGGTCACGTGAGGAA	0.34
TTGTACACGTGGCTGA	-0.1
ATTGTCACGTGAGGCG	0.28
GCTAGCACGTGGTATG	-0.15
ACGGGCACGTGGTTAA	-0.07
ATTTGCACGTGATATC	0.1

Sequence	relative binding free energy [kcal/mol]
TTGTGCACGTGTAGAG	0.03
TTCATCACGTGGTTTG	0.15
GTGCGCACGTGTTGGT	-0.09
TGGTACACGTGTTACA	0.11
TTGTGCACGTGAAAAA	0.26
ATGAACACGTGGTTAG	-0.08
GTGATCACGTGGGCCG	0.1
TTGGTCACGTGTCGGA	0.09
TAGAGCACGTGATGGA	0.05
TAGTGCACGTGAGTAG	0.1
GGTTACACGTGTCGGG	0.24
TATCACACGTGATGTT	0.2
GTAGTCACGTGGATGC	0.07
GTGTTCACGTGGGCGA	0.16
TTTGTCACGTGGCATT	-0.05
ATTTACACGTGATTTA	0.28
GAGTGCACGTGGTTTG	0
TAGTACACGTGGGATA	0.11
TAGATCACGTGAGTGG	0.23
TGGTACACGTGATGCG	0.1
CTATTCACGTGTGGGG	0.24
GAGTTCACGTGCTGTG	0.32
CAGTGCACGTGAGGGA	0.27
TTAAACACGTGATTTT	0.13
TGAAGCACGTGCGGAA	0.07

Sequence	relative binding free energy [kcal/mol]
GTTGTCACGTGCTCGT	-0.04
GTCTACACGTGGTTAT	0.11
CAGGCCACGTGTGTTG	-0.05
GAAGTCACGTGGGCGA	-0.02
AGTTCCACGTGCTGGG	0.08
TGGAGCACGTGGTTGA	-0.07
GAGTTCACGTGCTTTG	0.2
ATGTTCACGTGGTATA	0.06
AATTGCACGTGATTTG	0.06
AGTCGCACGTGTGTGA	0.07
TCTTGCACGTGTCAGT	0.01
AAGGTCACGTGACAGG	0.18
GATTACACGTGCTTGT	0.12
CACGGCACGTGGGGGA	-0.25
TTTTACACGTGTAGAG	0.24
AGGTGCACGTGTTCTG	-0.22
CATGACACGTGAAGGT	0.24
GTTACCACGTGGTGGC	0.02
ATTGACACGTGCGTTG	-0.1
GTTGTCACGTGAAGCG	0.28
GTTAGCACGTGTGTGG	-0.09
TTGATCACGTGAGGTT	0.26
GTCGCCACGTGTTTGT	0.03
AAGGTCACGTGCATGT	0.05
GTGCACACGTGGAGGG	0.09

Sequence	relative binding free energy [kcal/mol]
AGTAACACGTGAAGTT	0.11
TTATTCACGTGGGATC	0.14
TTGAACACGTGTAGGC	-0.01
TACGTCACGTGGGGTG	-0.06
GCGGTCACGTGGGCTG	-0.05
ATACACACGTGTAGGT	-0.05
AGGTCCACGTGGGCGT	-0.13
CGTTGCACGTGTTTCG	0
GGGGTCACGTGAGGAT	0.48
AGTGCCACGTGAGTGG	0.15
GCTCACACGTGTTGGT	0.37
CTGGGCACGTGGTCGA	-0.1
GGGTACACGTGCGGCT	0.02
CGCGGCACGTGTGGAT	-0.12
GGAATCACGTGAAGAG	0.44
AACAGCACGTGGTAGG	-0.13
TTTGTCACGTGCGAAG	0.1
GAGCGCACGTGTTGGG	-0.06
GTGGGCACGTGATTGG	0.08
GTTGGCACGTGCGGGT	-0.2
GTTGCCACGTGGTGTT	0.06
GTTTCCACGTGTTTAG	0.1
CTGGTCACGTGGAAAT	0.29
CGGGCCACGTGGGGAA	-0.21
AATTTCACGTGTGGAC	0.34

Sequence	relative binding free energy [kcal/mol]
GGCATCACGTGTAGGG	0.13
CTGGGCACGTGTAGTT	-0.07
ATGAGCACGTGCCGGT	0.05
GGACGCACGTGGGTTG	-0.24
TTATCCACGTGTTTGA	-0.07
TGTTTCACGTGTCAAG	0.25
TCCTGCACGTGATGTG	0.08
AGAAGCACGTGGGGGG	-0.29
TGAGGCACGTGAGGTG	0.14
AAATCCACGTGGGGTT	0
TCGTTCACGTGGCTTT	0.3
GTTTCCACGTGTTTTA	0.05
CGAAGCACGTGTGGAT	0.1
TTTTTCACGTGTACGC	0.52
TTGCTCACGTGGAGCA	0.4
AGGTTCACGTGGCTAT	0.29
TTAATCACGTGTAGTG	0.11
ATTGGCACGTGGGGCG	-0.22
AGTCACACGTGGTGTG	-0.11
CCTCGCACGTGGGGTT	-0.14
AGTATCACGTGATGAG	0.07
